# Data reported in PubChem BioAssay AID743255 (National Center for Advancing Translational Sciences (NCATS), 2014).
# Out of some 390,000 compounds screened, about 910 (0.23%) were called active. Roughly 5% stayed inconclusive and do not appear here. Calls follow the shape of the dose curve; as a rule, active = well fitted inhibition curve with a large enough effect; inconclusive = small, poorly fitted or top-dose-only effect; inactive = no such curve, though single readings can be large or run the other way. This is a selection; strong and weak results do not stand in their true shares.
# Molecular target: Ubiquitin carboxyl-terminal hydrolase 1 (Homo sapiens) (UniProt O94782)
# Assay: Inhibitors of USP1/UAF1: Primary Screen; also: nearly all actives have a fitted effect of over 60% in size
# Conditions: recombinant USP1/UAF1, Ub-Rhodamine cleavage fluorescence; activity change, negative = inhibition: at 57.1 µM (top of the series)
# In short: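 1 nM enzyme complex + cpd, 15 min RT; start with Ub-Rho 150nM final; kinetic fluorescence ex 480/em 540, 6 reads q60 s. Buffer 50mM HEPES pH 7.8, 0.5mM EDTA, 0.1 mg/ml BSA, 1mM TCEP, 0.01% Tween-20.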
# % is scaled to controls: 0 for no effect and ±100 for the full control effect; potency is read from the fitted curve at half-maximal effect.
# UniProt O94782, sequence (O94782 whole entry, looked up): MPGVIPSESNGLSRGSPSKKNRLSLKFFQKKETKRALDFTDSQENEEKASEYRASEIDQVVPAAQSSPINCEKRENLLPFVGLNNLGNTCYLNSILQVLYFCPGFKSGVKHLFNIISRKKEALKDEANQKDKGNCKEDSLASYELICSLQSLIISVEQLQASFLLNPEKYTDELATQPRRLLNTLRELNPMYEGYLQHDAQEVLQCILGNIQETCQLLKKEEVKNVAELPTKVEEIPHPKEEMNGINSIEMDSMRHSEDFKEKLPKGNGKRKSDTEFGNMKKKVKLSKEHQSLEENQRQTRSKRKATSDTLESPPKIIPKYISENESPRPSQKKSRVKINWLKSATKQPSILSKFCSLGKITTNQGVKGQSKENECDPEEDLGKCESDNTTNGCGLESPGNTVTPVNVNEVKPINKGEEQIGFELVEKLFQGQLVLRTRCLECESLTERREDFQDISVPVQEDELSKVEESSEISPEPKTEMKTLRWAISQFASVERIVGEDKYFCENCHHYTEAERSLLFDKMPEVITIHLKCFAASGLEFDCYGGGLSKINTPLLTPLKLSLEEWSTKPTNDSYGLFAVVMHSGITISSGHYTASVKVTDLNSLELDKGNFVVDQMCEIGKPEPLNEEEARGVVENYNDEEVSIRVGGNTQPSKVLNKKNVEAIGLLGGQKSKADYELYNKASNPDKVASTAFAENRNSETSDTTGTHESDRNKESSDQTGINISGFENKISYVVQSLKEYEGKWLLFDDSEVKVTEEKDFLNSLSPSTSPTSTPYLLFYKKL
SMILES,"activity change, negative = inhibition",Potency
CCCNC(=O)CCn1nc(-c2ccc(C)cc2)c2ccccc2c1=O,inactive: -18.2%,
CCC[C@H]1CCCC/C=C\CCCC(=O)OCCN1C(=O)OC(C)(C)C,inactive: -2.42%,
CCNc1cccc2c1C(=O)N(C)C2=O,,active: 15.8 µM
O=C1/C(=C/c2ccc(N3CCOCC3)o2)SC(=Nc2ccccc2)N1CCc1c[nH]c2ccccc12,inactive: 49.9%,
Nc1ccc2nc3c(=O)[nH]c(=S)[nH]c3nc2c1,,active: 28.2 µM
O=C(N[C@H]1C/C=C\C[C@@H](CC(=O)N(CCO)Cc2ccccc2)C(=O)N[C@H](Cc2c[nH]c3ccccc23)COC1=O)OCC1c2ccccc2-c2ccccc21,inactive: -14.1%,
C=CC[C@@H](CC(=O)N[C@@H](CO)Cc1ccccc1)C(=O)N[C@H](COC(=O)[C@H](CC=C)CC(=O)OC(C)(C)C)Cc1ccccc1,inactive: -25.7%,
C[C@@H]1CN([C@H](C)CO)C(=O)c2cc(NC(=O)NC3CCCCC3)ccc2O[C@H]1CN(C)S(C)(=O)=O,inactive: -18.8%,
COC(=O)C1=C(C)NC(C)=C(C(=O)OC)C1C(=O)OCC(=O)N1c2ccccc2CC1C (stereo not drawn),inactive: -11.6%,
CCc1ccc(-c2cc(C)no2)cc1S(=O)(=O)Nc1ccc(C)cn1,inactive: -8.73%,
O=c1[nH]c(N2CCOCC2)cc2ccccc12,,active: 10 µM
CCN(CC)c1ccc(/C=C(/C#N)c2nc3ccccc3[nH]2)c(OC(C)C)c1,inactive: 65.5%,
COC(=O)c1cc(S(=O)(=O)N2CCN(c3ccc(F)cc3)CC2)cn1C,inactive: -6.99%,
C[C@@H]1CN([C@H](C)CO)C(=O)CCCn2nncc2CO[C@@H]1CN(C)C(=O)c1ccc(N2CCN(C)CC2)cc1,inactive: -18.9%,
CC1CN(c2nc3ccccc3nc2C(C#N)C(=O)NCc2ccc3c(c2)OCO3)CC(C)O1 (stereo not drawn),inactive: 30.9%,
C[C@H](CO)NC(=O)c1nc[nH]c1C(=O)N[C@@H](C)c1ccccc1,inactive: -15.4%,
CC(=O)Nc1ccc(NC(=O)C(C)OC(=O)/C(C#N)=C/c2ccc(N(C)C)cc2)cc1 (stereo not drawn),inactive: 160%,
C/C(=N\Nc1ccc(C(=O)c2c(C)cc3ccccn23)cc1[N+](=O)[O-])c1ccc(O)cc1,inactive: -10%,
COC(=O)[C@H]1C[C@@H]1[C@H](NC(=O)c1cccnc1)c1ccccc1,inactive: -14.7%,
COC(=O)c1c(-c2ccccc2)c(-c2ccccc2)nn(C)c1=O,,inactive
C[C@@H]1O[C@@H](O[C@H]2[C@H](Oc3cc(O)c4c(c3)O[C@H](c3ccc(O)cc3)CC4=O)O[C@H](CO)[C@@H](O)[C@@H]2O)[C@H](O)[C@H](O)[C@H]1O,inactive: -30.1%,
C[C@H]1CN([C@@H](C)CO)C(=O)CCCn2nncc2CO[C@H]1CN(C)C(=O)c1ccc2ccn(C)c2c1,inactive: -24.4%,
CN1CCC23c4ccccc4NC1C21CCN(C)C3Nc2ccccc21,inactive: -14.9%,
